Source: a collection of fitness landscapes (doi:10.1126/science.1257360)
The list shows a part of the results.

B1: PhoQ; a variant is named by its letters at X, in order, P23837 (parent)
chain: MKKLLRLFFPLSLRVRFLLATAAVVLVLSLAYGMVALIGYSVSFDKTTFRLLRGESNLFYTLAKWENNKLHVELPENIDKQSPTMTLIYDENGQLLWAQRDVPWLMKMIQPDWLKSNGFHEIEADVNDTSLLLSGDHSIQQQLQEVREDDDDAEMTHSVAVNVYPATSRMPKLTIVVVDTIPVELKSSYMVWSWFIYVLSANLLLVIPLLWVAAWWSLRPIEALAKEVRELEEHNRELLNPATTRELTSLVRNLNRLLKSERERYDKYRTTLTDLTHSLKTPLXXLQXXLRSLRSEKMSVSDAEPVMLEQISRISQQIGYYLHRASMRGGTLLSRELHPVAPLLDNLTSALNKVYQRKGVNISLDISPEISFVGEQNDFVEVMGNVLDNACKYCLEFVEISARQTDEHLYIVVEDDGPGIPLSKREVIFDRGQRVDTLRPGQGVGLAVAREITEQYEGKIVAGESMLGGARMEVIFGRQHSAPKDE

Variants of: B1
Assay: enrichment ratio after two sorts for PhoP signalling (ratio (wild type AVST 3.29)); higher = more functional
Conditions: with PhoP (E. coli)
With WSCP the enrichment ratio was at most 0.25.
In the case of FMQS, the enrichment ratio is reported as at most 0.25.
Work on YEIF yielded an enrichment ratio of at most 0.25.
With HNRS the enrichment ratio was 0.686.
With GIPY the enrichment ratio was at most 0.25.
With PGQI the enrichment ratio was at most 0.25.
IGAK gave an enrichment ratio of at most 0.25.
Work on KEMF yielded an enrichment ratio of at most 0.25.
Variant FKKR has an enrichment ratio of at most 0.25.
Variant REVH has an enrichment ratio of at most 0.25.
RSPN was tested, and the enrichment ratio was at most 0.25.
Variant YLLL has an enrichment ratio of 0.307.
YPTM was tested, and the enrichment ratio was at most 0.25.
IQDC gave an enrichment ratio of at most 0.25.
In the case of TISR, the enrichment ratio is reported as 6.92.
Variant GHIS has an enrichment ratio of at most 0.25.
SMIA showed an enrichment ratio of at most 0.25.
Work on FGPH yielded an enrichment ratio of at most 0.25.
MKHL gave an enrichment ratio of at most 0.25.
In the case of SYTG, the enrichment ratio is reported as 0.487.
For ARIH, the enrichment ratio was at most 0.25.
HHTR gave an enrichment ratio of at most 0.25.
Work on FGQH yielded an enrichment ratio of at most 0.25.
AQQL was tested, and the enrichment ratio was at most 0.25.
LDIA showed an enrichment ratio of at most 0.25.
GWTQ showed an enrichment ratio of at most 0.25.
GMSA showed an enrichment ratio of at most 0.25.
For MKSR, the enrichment ratio was at most 0.25.
FWMK was tested, and the enrichment ratio was at most 0.25.
Work on YIWD yielded an enrichment ratio of at most 0.25.
For PFCI, the enrichment ratio was at most 0.25.
Work on PYEN yielded an enrichment ratio of at most 0.25.
In the case of TDWA, the enrichment ratio is reported as at most 0.25.
DKDN gave an enrichment ratio of at most 0.25.
Variant MRID has an enrichment ratio of at most 0.25.
Variant VHDI has an enrichment ratio of at most 0.25.
For YGLE, the enrichment ratio was 0.384.
With KNFS the enrichment ratio was at most 0.25.
In the case of EGKV, the enrichment ratio is reported as at most 0.25.
In the case of SFWC, the enrichment ratio is reported as at most 0.25.
Variant SYYQ has an enrichment ratio of at most 0.25.
LCQP was tested, and the enrichment ratio was at most 0.25.
HKVI showed an enrichment ratio of at most 0.25.
QSSS was tested, and the enrichment ratio was 8.71.
DQGS showed an enrichment ratio of at most 0.25.
Work on NKYR yielded an enrichment ratio of at most 0.25.
TDYI showed an enrichment ratio of at most 0.25.
Variant MNFM has an enrichment ratio of 6.56.
Variant RHYQ has an enrichment ratio of at most 0.25.
IDSR showed an enrichment ratio of at most 0.25.
MTER was tested, and the enrichment ratio was at most 0.25.
RLSW gave an enrichment ratio of at most 0.25.
KFTM gave an enrichment ratio of at most 0.25.
QDSL showed an enrichment ratio of at most 0.25.
GCAK showed an enrichment ratio of at most 0.25.
With YWDC the enrichment ratio was at most 0.25.
EWAL was tested, and the enrichment ratio was at most 0.25.
THIQ gave an enrichment ratio of at most 0.25.
With VGFK the enrichment ratio was at most 0.25.
KLQI showed an enrichment ratio of at most 0.25.
MYLH gave an enrichment ratio of at most 0.25.
KQAL gave an enrichment ratio of at most 0.25.
For YFHM, the enrichment ratio was at most 0.25.
With WTWY the enrichment ratio was at most 0.25.
For ADFM, the enrichment ratio was at most 0.25.
In the case of RKTG, the enrichment ratio is reported as at most 0.25.
Work on KESN yielded an enrichment ratio of at most 0.25.
Work on IKYD yielded an enrichment ratio of at most 0.25.
With SERC the enrichment ratio was at most 0.25.
With WDWT the enrichment ratio was at most 0.25.
With YRHQ the enrichment ratio was at most 0.25.
With ERCG the enrichment ratio was at most 0.25.
Variant DVKR has an enrichment ratio of at most 0.25.
In the case of RFKR, the enrichment ratio is reported as at most 0.25.
In the case of ALLP, the enrichment ratio is reported as at most 0.25.
TTHK gave an enrichment ratio of at most 0.25.
RTST was tested, and the enrichment ratio was at most 0.25.
For HWCH, the enrichment ratio was at most 0.25.
HPNR showed an enrichment ratio of at most 0.25.
Variant LWGF has an enrichment ratio of at most 0.25.
YWME showed an enrichment ratio of at most 0.25.
Work on HAHF yielded an enrichment ratio of at most 0.25.
DGNN gave an enrichment ratio of at most 0.25.
Variant SPEY has an enrichment ratio of at most 0.25.
Variant PQHG has an enrichment ratio of at most 0.25.
Variant MTWT has an enrichment ratio of at most 0.25.
With EAFH the enrichment ratio was at most 0.25.
In the case of SPWV, the enrichment ratio is reported as at most 0.25.
With SGIG the enrichment ratio was 5.8.
Work on HERA yielded an enrichment ratio of at most 0.25.
Variant DMED has an enrichment ratio of at most 0.25.
SFAA showed an enrichment ratio of at most 0.25.
FSVP showed an enrichment ratio of at most 0.25.
For FSRP, the enrichment ratio was at most 0.25.
In the case of HTCK, the enrichment ratio is reported as at most 0.25.
RYDY was tested, and the enrichment ratio was at most 0.25.
Variant SCDC has an enrichment ratio of at most 0.25.
PPLR showed an enrichment ratio of at most 0.25.
For QACW, the enrichment ratio was at most 0.25.
KMVM was tested, and the enrichment ratio was at most 0.25.
Variant QNNT has an enrichment ratio of at most 0.25.
EMSV was tested, and the enrichment ratio was at most 0.25.
Work on VRAK yielded an enrichment ratio of at most 0.25.
In the case of HRAV, the enrichment ratio is reported as at most 0.25.
Work on VTDT yielded an enrichment ratio of at most 0.25.
In the case of NYGM, the enrichment ratio is reported as at most 0.25.
Variant TTCI has an enrichment ratio of 15.8.
For FCNS, the enrichment ratio was at most 0.25.
Work on FKKQ yielded an enrichment ratio of at most 0.25.
Work on YNHW yielded an enrichment ratio of at most 0.25.
SNWF was tested, and the enrichment ratio was at most 0.25.
Variant GSAM has an enrichment ratio of 6.82.
In the case of YGIF, the enrichment ratio is reported as 1.46.
VEKT was tested, and the enrichment ratio was at most 0.25.
DMLY showed an enrichment ratio of at most 0.25.
MGVE gave an enrichment ratio of at most 0.25.
MYAF showed an enrichment ratio of at most 0.25.
In the case of PVHT, the enrichment ratio is reported as at most 0.25.
MEKY was tested, and the enrichment ratio was at most 0.25.
WQCV showed an enrichment ratio of at most 0.25.
In the case of IHYT, the enrichment ratio is reported as at most 0.25.
Variant PLHN has an enrichment ratio of at most 0.25.
NHAL was tested, and the enrichment ratio was at most 0.25.
YGFK was tested, and the enrichment ratio was at most 0.25.
Variant EKQY has an enrichment ratio of at most 0.25.
With ACSL the enrichment ratio was 16.6.
For PWIR, the enrichment ratio was at most 0.25.
Work on DCNH yielded an enrichment ratio of at most 0.25.
In the case of IFLI, the enrichment ratio is reported as at most 0.25.
YWWC showed an enrichment ratio of at most 0.25.
With TPWC the enrichment ratio was at most 0.25.
ASSV showed an enrichment ratio of 11.
Variant ALES has an enrichment ratio of at most 0.25.
For DEML, the enrichment ratio was at most 0.25.
Variant PYTL has an enrichment ratio of at most 0.25.
Variant VRMM has an enrichment ratio of at most 0.25.
FISF gave an enrichment ratio of at most 0.25.
For GYPL, the enrichment ratio was at most 0.25.
In the case of QPLK, the enrichment ratio is reported as at most 0.25.
PPSE was tested, and the enrichment ratio was at most 0.25.
Variant PVNT has an enrichment ratio of at most 0.25.
In the case of SGVE, the enrichment ratio is reported as at most 0.25.
ETTR showed an enrichment ratio of at most 0.25.
FEQY gave an enrichment ratio of at most 0.25.
Work on IMKC yielded an enrichment ratio of at most 0.25.
QEMK was tested, and the enrichment ratio was at most 0.25.
AQIW was tested, and the enrichment ratio was at most 0.25.
With DQKC the enrichment ratio was at most 0.25.
With KFCA the enrichment ratio was at most 0.25.
With LYDI the enrichment ratio was at most 0.25.
In the case of GQNL, the enrichment ratio is reported as at most 0.25.
With PPAY the enrichment ratio was at most 0.25.
Variant RSTI has an enrichment ratio of at most 0.25.
For MSYA, the enrichment ratio was 2.62.
In the case of TECY, the enrichment ratio is reported as 16.2.
LELW was tested, and the enrichment ratio was at most 0.25.
LLSI gave an enrichment ratio of at most 0.25.
LYWR gave an enrichment ratio of at most 0.25.
YPDH was tested, and the enrichment ratio was at most 0.25.
For DLHD, the enrichment ratio was at most 0.25.
FVSL was tested, and the enrichment ratio was at most 0.25.
Variant FCWL has an enrichment ratio of at most 0.25.
Work on ESNY yielded an enrichment ratio of at most 0.25.
In the case of ICYW, the enrichment ratio is reported as at most 0.25.
NHGI showed an enrichment ratio of at most 0.25.
Variant CLFT has an enrichment ratio of at most 0.25.
YFIR showed an enrichment ratio of at most 0.25.
PFEI showed an enrichment ratio of at most 0.25.
LQEW showed an enrichment ratio of at most 0.25.
In the case of GHKV, the enrichment ratio is reported as at most 0.25.
With INDS the enrichment ratio was at most 0.25.
In the case of GWFS, the enrichment ratio is reported as at most 0.25.
Work on FHEC yielded an enrichment ratio of at most 0.25.
EGCN gave an enrichment ratio of at most 0.25.
In the case of EVSR, the enrichment ratio is reported as at most 0.25.
Work on NSLQ yielded an enrichment ratio of 0.291.
Work on DTNE yielded an enrichment ratio of at most 0.25.
KEMW gave an enrichment ratio of at most 0.25.
For IEKG, the enrichment ratio was at most 0.25.
Work on PQDC yielded an enrichment ratio of at most 0.25.
LSSS gave an enrichment ratio of at most 0.25.
PVRR gave an enrichment ratio of at most 0.25.
For GHNV, the enrichment ratio was at most 0.25.
PRHR was tested, and the enrichment ratio was at most 0.25.
In the case of ALRN, the enrichment ratio is reported as at most 0.25.
Work on MCCH yielded an enrichment ratio of at most 0.25.
GHVV gave an enrichment ratio of at most 0.25.
In the case of QQLY, the enrichment ratio is reported as at most 0.25.
Work on WQKC yielded an enrichment ratio of at most 0.25.
Work on LPFE yielded an enrichment ratio of at most 0.25.
With TLSY the enrichment ratio was 0.962.
Variant VYAW has an enrichment ratio of at most 0.25.
VSYF showed an enrichment ratio of at most 0.25.
RTFS showed an enrichment ratio of at most 0.25.
STSN gave an enrichment ratio of 11.3.
